Some of the results follow.

In assay [1] the target is Neu5Gc(a2-8)Neu5Gc(a2-6)Gal(b1-4)GlcNAc. Description: glycan array binding signal (z-score within array); higher = stronger binding. To be noted: glycan notation: IUPAC condensed, linker removed. In outline:
(§1)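 Glycan array binding is given as a within-array Z-score, which can be read as non-binding when negative. The arrays, 3228 of them, came from the Consortium for Functional Glycomics database and were retained only where the protein sequence was available. Z-scores were averaged across arrays of the same protein sequence at different concentrations or buffers and across linkers.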

Assay [2] addresses Neu5Gc(b2-6)Gal(b1-4)GlcNAc. The description is as above. The settings on record: glycan notation: IUPAC condensed, linker removed. The method, boiled down:
as §1

B1: PX9961H-bth-557-24-557 (Bacteroides thetaiotaomicron) (protein)
chain: EETRTEVEKKNYMNNAEEAKDVLLGVYRTNTLDAMYGYYLSILFNLGTDISQVEGSGNENFRIIPTNSFPTTQSEVQQTWAALYTGIYRANDFLERISNKIGSYTTTDKKLATLYIAEARALRGMFYFELVRRFGNVVLMTSTQMSNQNPATYVQSAPEKVYEYIEDDLLYACDILPYATDDQYRESNDYRFSKGAALGLLTKVYATWAGYPVKDESKWEAAAKTARILVESGKHGLLKDYEQLWKNTCNGTWDPTESLIEISFYSPTVSGNSDPVGRIGKWNGVKTTAIAGVRGSCAANVKVVHTFVLDWREDVSDIRRDLSIANYQYTDTKKSLWVAGASDTDESAAEKDADPTKAQKNKQNYTPAKWDIQKYVTTNSFINNDKSNVNWYFLRYADVLLLYAEALNEWKHGPDAEAYNAINAVRRRGYGNPSNTSACDLPQGLDETSFREAVRKERSYELSFEGHRRQDLIRWGIYYKTVQATAKELGYWWEGTGSPNYSVATYTEEGKHELFPIPQRDMDLCIQFNQNPKW
Turning to B1, the “glycan array binding signal (z-score)” value was -0.327 in assay [1] and -0.202 in assay [2].
